Test results published in PubChem BioAssay AID624417 (National Center for Advancing Translational Sciences (NCATS), 2012).
The campaign covered roughly 410,000 compounds. About 6,400 (1.6%) were called active. Inconclusive means that the source gave no clear call. Such entries were picked first, then a sample of the others. The call rests on the fitted dose curve; in most records, active means well fitted inhibition curve with a large enough effect; inconclusive means small, poorly fitted or top-dose-only effect; inactive means no such curve, though single readings can be large or run the other way. No potency is given beside an inconclusive call; the fits are too rough.

Target: Glucagon-like peptide 1 receptor (Homo sapiens) (UniProt P43220)
UniProt P43220, sequence (P43220 whole entry, looked up): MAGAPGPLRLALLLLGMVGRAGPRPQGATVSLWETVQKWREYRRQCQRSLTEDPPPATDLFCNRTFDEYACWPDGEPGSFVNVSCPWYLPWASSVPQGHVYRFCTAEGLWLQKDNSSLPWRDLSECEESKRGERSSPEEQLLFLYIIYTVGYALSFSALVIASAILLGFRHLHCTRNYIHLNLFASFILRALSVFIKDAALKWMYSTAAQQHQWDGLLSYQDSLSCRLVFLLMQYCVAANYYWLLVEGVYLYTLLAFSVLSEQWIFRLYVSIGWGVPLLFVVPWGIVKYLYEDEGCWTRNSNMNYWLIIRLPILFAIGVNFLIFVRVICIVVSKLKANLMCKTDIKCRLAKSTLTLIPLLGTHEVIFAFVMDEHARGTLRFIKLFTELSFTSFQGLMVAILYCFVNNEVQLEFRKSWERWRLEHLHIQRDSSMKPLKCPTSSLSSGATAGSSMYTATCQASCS
Experiment: qHTS of GLP-1 Receptor Inverse Agonists (Inhibition Mode); further: nearly all actives have a fitted effect of over 55% in size
Settings: HEK293 GLP-1R CRE-luciferase, luminescence, 24 h, GLP-1R form is constitutively active; series mostly up to 38.3 µM
Procedure, shortened: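 Seeding at 200 cells/uL, 12 h culture, 24 hr compound treatment, then luciferase reagent and a luminescence read; cells are HEK293 stably expressing a constitutively active GLP-1R plus cAMP-responsive luciferase.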
Potency means the concentration at half of the fitted maximal effect; tags describe the fitted curve by direction and shape.

`c1ccc2c(CCN3CCNC[C@H]3Cc3cccc4ccccc34)cccc2c1` was tested. Which Potency did it give?
The Potency was “inactive”.

`NS(=O)(=O)c1ccc(N2N=C(c3ccccc3)CC2c2cccc(F)c2)cc1` (stereo unspecified) was tested. Which Potency did it give?
The Potency was inconclusive [inhibitor, single point].

How did the Potency turn out when `COc1cccc(NC(=O)C2CCCN2C(=O)OCc2ccccc2)c1` (stereo unspecified) was run?
Its Potency is “inactive”.

With `S=C(NCCc1ccccc1)N/N=C/c1ccc(Cl)cc1` as the molecule, how does the Potency read?
Its Potency is inconclusive [inhibitor, single point].

How did the Potency turn out when `COc1cc2c(cc1OC)C(c1ccccc1)N(C(=O)c1ccccc1)CC2` (stereo unspecified) was run?
The Potency was inconclusive [inhibitor, single point].

For `COc1cccc(NC(=S)/C(=C(\[O-])c2cc(C)n(-c3ccccc3F)c2C)[n+]2ccc(N(C)C)cc2)c1`, which Potency is on record?
Its Potency is inconclusive [inhibitor, partial curve].

Which Potency does the source give for `CC1(C)CC(=O)c2cnc(NCc3ccco3)nc2C1` here?
Its Potency is inconclusive [inhibitor, partial curve, poor fit].

With `Cc1cccc(-c2c3c(=O)n(C)c(=O)n(C)c3cn2-c2ccccc2O)c1` as the molecule, how does the Potency read?
The Potency was “inactive”.

`CN1CCN(CC(=O)c2cc(C(C)(C)C)c(O)c(C(C)(C)C)c2)CC1` was tested. Which Potency did it give?
Its Potency is inconclusive [inhibitor, partial curve, poor fit].

Which Potency does the source give for `CC1(C)Cc2c(C#N)c(N3CCOCC3)nc(-c3ccccc3)c2CO1` here?
The Potency was inconclusive [inhibitor, partial curve, poor fit].

How did the Potency turn out when `CCN(CC)C(=S)Sc1c(-c2ccccc2)c2cc(Cl)ccc2[nH]c1=O` was run?
The Potency was inconclusive [inhibitor, partial curve, poor fit].

For `COc1ccc(OCc2cc(=O)[nH]c3ccccc23)cc1`, which Potency is on record?
Its Potency is “inactive”.

With `CC(=O)OC1[C@H](Oc2c(O)c(C)c3c4c2[C@@H](C)CC[C@@H]4[C@@H](C)C[C@@H]3C=C(C)C)OC[C@@H](O)[C@@H]1O` (stereo partly specified) as the molecule, how does the Potency read?
Its Potency is “inactive”.

Which Potency does the source give for `CC(C)NC(=S)NC(=O)c1ccc(Cl)cc1Cl` here?
Its Potency is inconclusive [inhibitor, single point].

`CC(C(=O)NCc1ccccc1F)n1ccc2cc(S(=O)(=O)N3CCCC3)ccc21` (stereo unspecified) was tested. Which Potency did it give?
The Potency was inconclusive [inhibitor, partial curve, poor fit].

Which Potency does the source give for `COc1ccc2cc(C(=O)C3CCCN(Cc4ccccn4)C3)ccc2c1` (stereo unspecified) here?
Its Potency is inconclusive [inhibitor, partial curve, poor fit].

Which Potency does the source give for `COC(=O)CCC(C)C1CCC2C3C(OC(C)=O)CC4CC(O)CCC4(C)C3CC(O)C12C` (stereo unspecified) here?
Its Potency is inconclusive [inhibitor, single point].

For `CC(Sc1cccc[n+]1[O-])C(=O)Nc1cccc([N+](=O)[O-])c1` (stereo unspecified), which Potency is on record?
The Potency was “inactive”.

`CC(C)c1ccc(S(=O)(=O)NCc2ccc3c(c2)CCN3C(=O)c2ccccc2)cc1` was tested. Which Potency did it give?
Its Potency is inconclusive [inhibitor, single point].

Which Potency does the source give for `CCC(C)Sc1nnc(CNC(=O)C23CC4CC(CC(C4)C2)C3)n1C1CCCCC1` (stereo unspecified) here?
The Potency was inconclusive [inhibitor, full curve, poor fit].

For `CCOCCN1CCN(C(=O)CN2CCCC2=O)CC1`, which Potency is on record?
Its Potency is “inactive”.

Which Potency does the source give for `CCOC(=O)C(C)Oc1cccc2c(=O)n(CC(=O)NCc3ccc(F)cc3)ccc12` (stereo unspecified) here?
The Potency was inconclusive [inhibitor, full curve, poor fit].

Which Potency does the source give for `COc1ccc(CCN(C)C(=O)CSc2nc3ccccc3c(=O)n2CC2CCCO2)cc1OC` (stereo unspecified) here?
The Potency was “inactive”.

Which Potency does the source give for `O=C1CCN(CCc2ccccc2)CCN1[C@H](CO)Cc1ccccc1` here?
The Potency was “inactive”.

With `COc1ccc2cc(-c3nc4ccc(C(=O)O)cc4[nH]3)c(=O)oc2c1` as the molecule, how does the Potency read?
The Potency was “inactive”.

With `C=Cc1ccc(Cn2nc(-c3ccc(C)c(S(=O)(=O)N(CC)CC)c3)ccc2=O)cc1` as the molecule, how does the Potency read?
The Potency was inconclusive [inhibitor, partial curve, poor fit].

Which Potency does the source give for `COc1cccc(C2c3[nH]c4ccccc4c3CCN2Cc2cccc(C)n2)c1` (stereo unspecified) here?
Its Potency is active: 11.2 µM.

`Oc1ccc(C[C@H]2CNC(=S)N2CCc2cc(C(F)(F)F)cc(C(F)(F)F)c2)cc1` was tested. Which Potency did it give?
Its Potency is inconclusive [inhibitor, partial curve, poor fit].

With `Cc1cccn2c(=O)c3cc(C#N)c(=O)n(-c4nnc(SCc5ccccc5F)s4)c3nc12` as the molecule, how does the Potency read?
The Potency was “inactive”.

Which Potency does the source give for `COc1ccc(C2=CC(=O)CC(c3ccc(OC)cc3)C2)cc1` (stereo unspecified) here?
The Potency was inconclusive [inhibitor, single point].

How did the Potency turn out when `Cc1cccc(NS(=O)(=O)c2ccc(NC(=O)CN(c3cc([N+](=O)[O-])ccc3C)S(C)(=O)=O)cc2)c1` was run?
Its Potency is inconclusive [inhibitor, full curve, poor fit].

For `Cn1cc(C(=O)c2ccc(Cl)cc2Cl)cc1C(=O)N/N=C(\N)COc1ccc(Cl)cc1Cl`, which Potency is on record?
Its Potency is inconclusive [inhibitor, partial curve, poor fit].

For `CCOC(=O)c1ccc(N2CCN(c3cc(C)ccc3C)CC2)c(NC(=O)Nc2ccccc2)c1`, which Potency is on record?
Its Potency is inconclusive [inhibitor, partial curve, poor fit].

Which Potency does the source give for `CCOc1cc(C2C(C(=O)c3ccccc3)=C(C(=O)OC)Nc3nnnn32)ccc1O` (stereo unspecified) here?
The Potency was “inactive”.

How did the Potency turn out when `O=C(Nc1ccc(Cl)cc1)N1CCCN(Cc2ccc(F)cc2)C1` was run?
Its Potency is inconclusive [inhibitor, partial curve, poor fit].

`COc1ccccc1NC(=O)c1cc2c(=O)oc3ccc(C)cc3c2s1` was tested. Which Potency did it give?
Its Potency is “inactive”.

Which Potency does the source give for `O=C(c1cccc([N+](=O)[O-])c1)N1CCN(C/C=C/c2ccccc2)CC1` here?
Its Potency is “inactive”.

How did the Potency turn out when `CCC1CCCCN1C(=S)NC(=O)c1ccc(F)c(S(=O)(=O)N2CCOCC2)c1` (stereo unspecified) was run?
Its Potency is inconclusive [inhibitor, full curve, poor fit].

Which Potency does the source give for `CCn1c(C(=O)N2CCC(C(=O)NCc3cccs3)CC2)cc2sccc21` here?
Its Potency is inconclusive [inhibitor, full curve].

`CCOC(=O)C1=C[C@@H](CC)N(S(=O)(=O)c2ccc([N+](=O)[O-])cc2)[C@H]1c1ccccc1` was tested. Which Potency did it give?
The Potency was inconclusive [inhibitor, single point].

For `CCCN(CC(=O)Nc1ccccc1OC)C(=O)c1ccc(COc2ccccc2)o1`, which Potency is on record?
The Potency was inconclusive [inhibitor, partial curve, poor fit].

How did the Potency turn out when `CC(=O)OCCCN1c2ccccc2Nc2nnc(-c3ccccc3)cc21` was run?
Its Potency is inconclusive [inhibitor, single point].

For `CC(=O)c1ccc(C(=O)N2CCc3c([nH]c4ccccc34)C2c2ccccn2)s1` (stereo unspecified), which Potency is on record?
The Potency was inconclusive [inhibitor, partial curve, poor fit].

How did the Potency turn out when `CCOC(=O)c1sc2cccc(F)c2c1S(=O)(=O)N1CCN(c2cccc(Cl)c2)CC1` was run?
Its Potency is inconclusive [inhibitor, single point].

`COc1cc(C(=S)N2CCCCC2)ccc1OCC(=O)Nc1ccccc1Cl` was tested. Which Potency did it give?
Its Potency is inconclusive [inhibitor, full curve, poor fit].

Which Potency does the source give for `Cn1c(-c2ccc(Br)o2)nc2cc(Br)ccc21` here?
Its Potency is inconclusive [inhibitor, single point].

`Cc1csc(NC(=O)c2ccc(C)c([N+](=O)[O-])c2)n1` was tested. Which Potency did it give?
The Potency was inconclusive [inhibitor, single point].

With `CCOC(=O)c1c(-c2ccccc2)oc2cc(CN(C)C)c(O)c(CN(C)C)c12` as the molecule, how does the Potency read?
Its Potency is “inactive”.

How did the Potency turn out when `C[C@H]1CCCCO[C@H](CN(C)C(=O)Nc2ccc(F)cc2)[C@@H](C)CN([C@@H](C)CO)C(=O)c2cc(NC(=O)Nc3ccc4c(c3)OCO4)ccc2O1` was run?
Its Potency is inconclusive [inhibitor, partial curve, poor fit].

How did the Potency turn out when `Cc1ccc(Cl)cc1-c1cc(C(=O)Nc2ccc(F)cc2)[nH]n1` was run?
The Potency was inconclusive [inhibitor, single point].

For `CN(C)c1cccc(C(=O)OCCCC(=O)c2ccc(F)cc2)c1`, which Potency is on record?
The Potency was inconclusive [inhibitor, single point].

For `S=C(NCc1ccc2c(c1)OCO2)NC1CCN(Cc2ccccc2)CC1`, which Potency is on record?
Its Potency is inconclusive [inhibitor, partial curve, poor fit].

Which Potency does the source give for `C=CCOC(=O)C1=C[C@@H](c2ccc(C(F)(F)F)cc2)C[C@@H](OCc2ccc(CO)cc2)O1` here?
Its Potency is inconclusive [inhibitor, partial curve, poor fit].

Which Potency does the source give for `COc1cccc(C(=O)N2c3cc(C)ccc3C(C)(c3ccccc3)CC2(C)C)c1` (stereo unspecified) here?
The Potency was inconclusive [inhibitor, partial curve, poor fit].

For `C=CCN1C(=O)C(O)(CC(=O)c2ccco2)c2cc(Br)ccc21` (stereo unspecified), which Potency is on record?
The Potency was inconclusive [inhibitor, single point].

`Cc1cc(-c2ccccc2)nc2cc(C(=O)N(Cc3ccccc3)Cc3ccccc3)nn12` was tested. Which Potency did it give?
Its Potency is inconclusive [inhibitor, single point].

With `CCc1ccccc1Nc1nc2ccccc2n1CC` as the molecule, how does the Potency read?
The Potency was “inactive”.

How did the Potency turn out when `Cc1ccc(/C=C/c2ccc(N(C)C)cc2)[n+](C)c1` was run?
Its Potency is inconclusive [inhibitor, full curve, poor fit].

For `Cc1cccc(-c2ccc3[nH]c4c(c3c2)CCN2C[C@@H]([C@H](C)OC(=O)Nc3ccccc3C)[C@@H](N(C)C(=O)Nc3ccccc3C)C[C@@H]42)c1`, which Potency is on record?
Its Potency is inconclusive [inhibitor, partial curve, poor fit].

How did the Potency turn out when `O=C(CCNC(=O)c1ccc(Br)cc1)Nc1cccc(S(=O)(=O)N2CCCCC2)c1` was run?
The Potency was inconclusive [inhibitor, single point].

How did the Potency turn out when `COc1ccc(CNCc2cn(-c3cccc(F)c3)nc2-c2ccc(C)o2)cc1` was run?
The Potency was inconclusive [inhibitor, single point].
